This is an account of results in PMC6919601, “Identification of Plasmodium dipeptidyl aminopeptidase allosteric inhibitors by high throughput screening” (PLoS ONE, 2019).

SMILES strings stand for the structures. The whole screen tested about 110,000 compounds, of which about 230 (0.21%) showed an effect of 50% or more. This is one part of the list.
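Note: 30 min substrate incubation versus DMSO and 10 µM JCP410 controls.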

DPAP1, sequence (Q8IIJ9 whole entry, looked up): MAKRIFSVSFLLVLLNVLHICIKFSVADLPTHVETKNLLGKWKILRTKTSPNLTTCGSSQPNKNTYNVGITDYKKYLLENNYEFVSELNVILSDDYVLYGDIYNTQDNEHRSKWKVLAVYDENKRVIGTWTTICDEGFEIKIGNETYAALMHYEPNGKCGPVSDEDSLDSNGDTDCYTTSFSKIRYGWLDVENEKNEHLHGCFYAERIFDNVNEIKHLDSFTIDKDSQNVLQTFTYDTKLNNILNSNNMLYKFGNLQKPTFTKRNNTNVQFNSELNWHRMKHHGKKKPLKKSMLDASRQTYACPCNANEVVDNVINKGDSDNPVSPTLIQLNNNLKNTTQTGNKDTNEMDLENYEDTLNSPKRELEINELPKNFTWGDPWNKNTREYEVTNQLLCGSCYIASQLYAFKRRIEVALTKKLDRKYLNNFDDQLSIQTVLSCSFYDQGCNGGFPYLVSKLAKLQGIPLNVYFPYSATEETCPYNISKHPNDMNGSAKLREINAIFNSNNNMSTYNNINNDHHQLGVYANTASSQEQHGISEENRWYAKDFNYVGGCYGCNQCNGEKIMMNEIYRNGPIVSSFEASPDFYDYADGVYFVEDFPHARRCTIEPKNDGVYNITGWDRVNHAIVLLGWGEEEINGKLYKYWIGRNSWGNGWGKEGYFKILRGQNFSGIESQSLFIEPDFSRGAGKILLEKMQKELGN

The assay has as its target DPAP1 (Plasmodium falciparum, UniProt Q8IIJ9). Briefly: primary screen, percent inhibition; read by cleavage of a fluorogenic dipeptide substrate; higher = more effect of the substance. Further details: species or system P. falciparum D10 trophozoite lysates; single well.
For the compound `COc1ccc2[nH]c(NCc3ccccc3)nc2c1`, the “% Inhibition @ 10 uM” value is recorded as -2.91%.

Consider `O=C(O)C1=NN(c2ccccc2)C(=O)/C1=C\c1ccc(Cl)cc1`, for which the “% Inhibition @ 10 uM” value worked out at 0.634%.

With `Cc1cccc(OCCCCCc2c(C)n[nH]c2C)c1`, the “% Inhibition @ 10 uM” value is recorded as -2.18%.

Consider `CCC(Cc1ccccc1)NC(=O)c1cc2sccc2n1C` (centres unmarked), for which the “% Inhibition @ 10 uM” value is listed as -3.08%.

Regarding `CC(C)(C)S(=O)(=O)c1ccsc1Br`, the “% Inhibition @ 10 uM” value is listed as 5.58%.

For `CCOCCO/C(O)=C1\C(C)=NC2=C(C(=O)CCC2)C1c1cc(Br)c(O)c(OCC)c1` (centres unmarked), the “% Inhibition @ 10 uM” value was 13.2%.

As for `Cc1ccc2nc3c(c(N)c2c1)C(=O)CC(C)(C)C3`, the “% Inhibition @ 10 uM” value is reported as 5%.

On to `Oc1ccccc1-c1cc(-c2ccccc2)nc(N2CCCCC2)n1`, for which the “% Inhibition @ 10 uM” value was -2.47%.

As to `COc1ccccc1C1C=C(c2cccnc2)Nc2nc3ccccc3n21` (centres unmarked), the “% Inhibition @ 10 uM” value was -1.62%.

With `CN1CCC(NCc2ccc(F)cc2)CC1`, the “% Inhibition @ 10 uM” value is on record as -9.33%.

With `COc1ccc(OC)c(-c2[nH]nc3c2C(c2ccc(C)o2)C(C#N)=C(N)O3)c1` (centres unmarked), the “% Inhibition @ 10 uM” value was -0.305%.

Regarding `Cc1cc(N2CCCC2)n2nc(C)nc2n1`, the “% Inhibition @ 10 uM” value is -2.19%.

On to `O=C(O)c1cc(C(=O)O)c2cc(Cl)ccc2n1`, for which the “% Inhibition @ 10 uM” value worked out at 3.25%.

For the compound `COc1ccccc1N1CCN(C2CC(=O)N(c3ccc(C(=O)O)cc3)C2=O)CC1` (centres unmarked), the “% Inhibition @ 10 uM” value is recorded as -1.24%.

Turning to `Cc1cc(C)c(S(=O)(=O)N2CCN(Cc3ccccc3)CC2)c(C)c1`, the “% Inhibition @ 10 uM” value is listed as -3.04%.

`O=C(Nc1ccc(C(=O)N2CCOCC2)cc1)Nc1cccc(Cl)c1`: the “% Inhibition @ 10 uM” value is on record as 3.17%.

On to `Cc1ccc(CN2CCN(C(=O)c3ccccc3F)CC2)cc1`, for which the “% Inhibition @ 10 uM” value is on record as -13.4%.

For `Cc1cc(N2CCNCC2)c2ccccc2n1`, the “% Inhibition @ 10 uM” value was -1.55%.

Take `COCCCNC(=O)c1cc(-c2ccc(C)cc2)nc2[nH]nc(-c3ccc(C)cc3)c12`: the “% Inhibition @ 10 uM” value came to 2.96%.

With `Oc1oc(-c2cccc3ccccc23)nc1/C=N/Cc1ccccc1`, the “% Inhibition @ 10 uM” value is on record as 3.42%.

In the case of `COc1ccc2occ(C(O)c3ccccc3)c2c1` (centres unmarked), the “% Inhibition @ 10 uM” value is listed as 1.04%.

On to `C=CCOC(=O)C1=C(C)N(C)C(=O)NC1c1ccc(OCc2ccccc2)cc1` (centres unmarked), for which the “% Inhibition @ 10 uM” value turned out to be 13.2%.

`O=C1CC(c2ccccc2)OC12CCCCC2` (centres unmarked): the “% Inhibition @ 10 uM” value is listed as -2.47%.

Consider `COc1cc(OC)cc(C(=O)NCc2ccccc2)c1`, for which the “% Inhibition @ 10 uM” value is -2.32%.

Regarding `Cn1c(=O)c(C(=O)c2ccccc2Cl)c(O)c2ccccc21`, the “% Inhibition @ 10 uM” value was -4.31%.

As for `CCCN(CCO)Cc1ccc(OC(F)(F)F)cc1`, the “% Inhibition @ 10 uM” value is reported as -1.75%.

As to `S=C(c1ccc(-c2ccc(Cl)cc2Cl)o1)N1CCOCC1`, the “% Inhibition @ 10 uM” value was -3.98%.

For the compound `COc1ccc(CC(=O)n2nc(-c3ccccc3)c(Br)c2N)cc1OC`, the “% Inhibition @ 10 uM” value was determined as 5.45%.

As to `N#CCNC(=O)[C@H](Cc1ccc(-c2ccccc2)cc1)NC(=O)OCc1ccccc1`, the “% Inhibition @ 10 uM” value is on record as -5.2%.

As for `CC(C)(O)C#Cc1ccc(C(=O)NCc2ccccc2)s1`, the “% Inhibition @ 10 uM” value is -2.63%.

Regarding `Cc1c(C(=O)NCCCOC(C)C)sc2nc(-c3ccc(F)cc3)cn12`, the “% Inhibition @ 10 uM” value was -0.138%.

Consider `Cc1ccc(S(=O)(=O)NCCN2CCOCC2)cc1-c1nnc2c3ccccc3c(C)nn12`, for which the “% Inhibition @ 10 uM” value is recorded as -1.82%.

With `CC(C)C[C@H](NC(=O)c1cc(Br)c(O)cc1O)C(=O)NCC#N`, the “% Inhibition @ 10 uM” value turned out to be 0.174%.

In the case of `N#CCNC(=O)[C@H](CSCc1ccc(SC(F)(F)F)cc1)NC(=O)c1ccccc1`, the “% Inhibition @ 10 uM” value is -3.49%.

Consider `O=C(NCc1noc2ccccc12)N1CCCCC1`, for which the “% Inhibition @ 10 uM” value is 3.54%.

`COc1ccc(C2=NC(c3ccsc3)NC(c3cc(Cl)ccc3O)C2)cc1` (centres unmarked): the “% Inhibition @ 10 uM” value was -4.24%.

Consider `Fc1ccccc1OCCCCn1ccnc1`, for which the “% Inhibition @ 10 uM” value came out at 1.83%.

As to `Oc1cccc(CN2CCC(Cc3ccccc3)CC2)c1`, the “% Inhibition @ 10 uM” value is recorded as -1.18%.

As to `CCc1ccccc1NC(=O)CN(c1ccccc1)S(C)(=O)=O`, the “% Inhibition @ 10 uM” value is on record as 2.33%.

With `O=C(O)C1CCCCC1C(=O)Nc1cccc(Cl)c1` (centres unmarked), the “% Inhibition @ 10 uM” value worked out at 6.74%.

As to `COc1ccc(Cn2c(=O)oc3ccccc32)cc1OC`, the “% Inhibition @ 10 uM” value is on record as -1.98%.

Take `O=C(O)c1ccc(CNc2nc3ccc(C(=O)c4ccccc4)cc3n3cnnc23)cc1`: the “% Inhibition @ 10 uM” value is on record as -5.93%.

With `COC(=O)c1sc(N2C(=O)c3oc4ccccc4c(=O)c3C2c2ccco2)nc1C` (centres unmarked), the “% Inhibition @ 10 uM” value is reported as 4.06%.

On to `COc1cc(NC(=O)c2ccc(Cl)s2)c(OC)cc1Cl`, for which the “% Inhibition @ 10 uM” value was -2.88%.

As to `CCSc1nc(O)c2c(n1)NC(=O)CC2c1ccc(F)cc1F` (centres unmarked), the “% Inhibition @ 10 uM” value is 3.84%.

Regarding `CCOc1ccccc1N1CCN(Cc2sccc2C)CC1`, the “% Inhibition @ 10 uM” value is on record as -2.56%.

Turning to `CCSc1sc(CC)cc1C1C2=C(O)CCCC2=NC(C)=C1C(=O)Nc1cc(C)ccn1` (centres unmarked), the “% Inhibition @ 10 uM” value was -3.06%.

Take `COc1ccc(OC)c(C2=NOC(C(=O)N3CCCCC3C)C2)c1` (centres unmarked): the “% Inhibition @ 10 uM” value is 1.24%.

As for `Cn1c(=O)c2c(nc(CN3CCc4ccccc4C3)n2CC(=O)c2ccccc2)n(C)c1=O`, the “% Inhibition @ 10 uM” value was -5.1%.

As to `CCOc1c(C=C(C#N)C#N)c2ccccc2n1-c1c(Cl)cccc1Cl`, the “% Inhibition @ 10 uM” value is on record as -1.42%.

In the case of `CC(=O)Nc1ccc(Oc2ccc(NC(C)=O)c(NC(C)=O)c2)cc1`, the “% Inhibition @ 10 uM” value is recorded as 70.7%.

Regarding `COc1ccc(/C=C2\N=C(SCC(=O)Nc3ccccc3)N(C)C2=O)cc1OC`, the “% Inhibition @ 10 uM” value was found to be 2.68%.

For the compound `O=C(CN1CCN(Cc2ccc(Cl)cc2)C1=O)NCc1ccc2c(c1)OCO2`, the “% Inhibition @ 10 uM” value was found to be 3.07%.
